Experimental data as given in PubChem BioAssay AID1030 (National Center for Advancing Translational Sciences (NCATS), 2008).
Screen size: about 220,000 compounds; about 16,000 (7.3%) were called active. Inconclusive results, whose numbers are uncertain, are shown with a selection of clear calls. Calls follow the shape of the dose curve; as a rule, active = well fitted inhibition curve with a large enough effect (not every such curve was filed as active); inconclusive = small, poorly fitted or top-dose-only effect, or another doubt; inactive = no such curve, though single readings can be large or run the other way. Potencies of inconclusive entries are left out as doubtful fits.

These compounds were tested against Aldehyde dehydrogenase 1A1 (Homo sapiens) (UniProt P00352) (assay: qHTS Assay for Inhibitors of Aldehyde Dehydrogenase 1 (ALDH1A1)). Details: Purified ALDH1A1, NADH fluorescence, propionaldehyde substrate; series mostly up to 75.3 µM; activity, negative = inhibition: at the top concentration.
Chain of UniProt P00352 (P00352 whole entry, looked up): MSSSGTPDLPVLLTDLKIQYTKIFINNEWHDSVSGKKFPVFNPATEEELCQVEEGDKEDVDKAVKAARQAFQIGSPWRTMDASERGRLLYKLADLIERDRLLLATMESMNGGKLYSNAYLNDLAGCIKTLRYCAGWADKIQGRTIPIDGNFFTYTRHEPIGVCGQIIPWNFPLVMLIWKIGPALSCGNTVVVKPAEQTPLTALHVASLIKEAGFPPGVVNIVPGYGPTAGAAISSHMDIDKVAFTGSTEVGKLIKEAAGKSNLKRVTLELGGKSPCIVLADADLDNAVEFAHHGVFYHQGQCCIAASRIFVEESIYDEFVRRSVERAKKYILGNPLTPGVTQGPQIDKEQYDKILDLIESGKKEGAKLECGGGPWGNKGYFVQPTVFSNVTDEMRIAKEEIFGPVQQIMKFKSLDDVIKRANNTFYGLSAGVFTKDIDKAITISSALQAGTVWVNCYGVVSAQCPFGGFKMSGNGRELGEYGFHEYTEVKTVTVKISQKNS

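For activity, negative = inhibition in this document: plate controls were no enzyme wells and a reference inhibitor.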
Potency is read from the fitted curve at half-maximal effect; tags tell the direction and shape of the fitted curve.

| SMILES | Potency | activity, negative = inhibition |
| --- | --- | --- |
| O=C(Nc1ccccn1)C(NS(=O)(=O)c1cccc2nsnc12)c1ccccc1 (stereo not given) | inconclusive [inhibitor, single point] |  |
| CCOC(=O)C1CCN(Cc2coc3c(Cl)cc(Cl)cc3c2=O)CC1 |  | inactive: -14.9% |
| Cc1cc2nn(-c3cccc4ccccc34)nc2cc1N | inconclusive [inhibitor, partial curve] |  |
| COc1ccc(CNc2cc(-c3cccc(C#N)c3)ncn2)c(OC)c1 | inconclusive [inhibitor, single point] |  |
| CCc1cc(C=NC2CCCCC2)c(O)s1 | inconclusive [inhibitor, partial curve] |  |
| Cc1noc(NS(=O)(=O)c2ccc(N/C=C\C(=O)c3cccc4ccccc34)cc2)c1C | active: 3.98 µM |  |
| COc1cc(NC(=S)NC(=O)c2ccccc2F)ccc1NC(=O)c1cccs1 | inconclusive [inhibitor, single point] |  |
| O=C1C2C3CCCC3=C3CCCC3C2C(=O)N1c1ccccc1 (stereo not given) | active: 25.1 µM |  |
| COC(=O)c1cc(OC)c(OC)cc1NC(=O)C(C)Sc1ccc(C)cc1 (stereo not given) | inconclusive [inhibitor, single point] |  |
| Cc1ccc(NC(=O)CC2C(=O)N(Cc3ccccc3)C(=S)N2NC(=O)c2cccc(F)c2)c(C)c1 (stereo not given) |  | inactive: 2.55% |
| CSc1ccc(Cl)c(C(=O)OCC(=O)N(C)CCC#N)c1 | inconclusive [inhibitor, single point] |  |
| CCc1ccc(NC(=O)CNS(=O)(=O)c2c(C)noc2C)cc1 | inconclusive [inhibitor, single point] |  |
| O=C(CCC1CCCN(C(=O)c2ccc3c(c2)OCCO3)C1)NCc1ccccc1F (stereo not given) | inconclusive [inhibitor, single point] |  |
| CN(Cc1nc(Cc2ccccc2F)no1)[C@@H]1CS(=O)(=O)C[C@H]1O |  | inactive: -7.41% |
| COC(=O)Cc1c(C)c2ccc(O)c(CN3CCCC(C)C3)c2oc1=O (stereo not given) | inconclusive [inhibitor, full curve] |  |
| CC(Oc1ccc(Cl)cc1)C(=O)NCCN1C(=O)S/C(=C\c2cccnc2)C1=O (stereo not given) | inconclusive [inhibitor, single point] |  |
| CCC(=O)NCCCCNC(=O)CC |  | inactive: 3.68% |
| O=C(CC1Nc2ccccc2NC1=O)Nc1ccccc1 (stereo not given) | inconclusive [inhibitor, single point] |  |
| CCCC12CN3CC(C)(CN(C1)C3c1ccc3c(c1)OCO3)C2=O (stereo not given) | active: 2 µM |  |
| O=C(c1ccccc1)c1cnc2ccc(Cl)cc2c1N1CCOCC1 |  | inactive: -6.36% |
| CCOC(=O)c1sc2nccc(OC)c2c1N=CN(C)C | inconclusive [inhibitor, single point] |  |
| COc1ccc(N2C(=O)C3CCCN3C2c2cccs2)cc1 (stereo not given) | inconclusive [inhibitor, single point] |  |
| c1ccc(Nc2nc(N3CCCCC3)nc(N3CCNCC3)n2)cc1 | inconclusive [inhibitor, single point] |  |
| C/C(=N\NC(=O)Cc1ccc(F)cc1)c1ccc(O)cc1 |  | inactive: -5.64% |

| SMILES | Potency | activity, negative = inhibition |
| --- | --- | --- |
| COc1cc(NCCC(=O)c2cccs2)c(OC)cc1Cl | active: 1.41 µM |  |
| O=C(NC1=NCCS1)c1cc(-c2ccc(-c3ccccc3)cc2)nc2ccccc12 | inconclusive [inhibitor, single point] |  |
| CC(=O)OCC1OC(C#Cc2ccc(C(C)(C)C)cc2)C=CC1OC(C)=O (stereo not given) |  | inactive: -11.8% [at 13.5 µM] |
| C[C@@H]1[C@H](C)CC[C@@]2(C(=O)O[C@H]3O[C@@H](CO[C@H]4O[C@@H](CO)[C@@H](O[C@H]5O[C@@H](C)[C@@H](O)[C@@H](O)[C@@H]5O)[C@@H](O)[C@@H]4O)[C@@H](O)[C@@H](O)[C@@H]3O)CC[C@]3(C)C(=CC[C@H]4[C@@]5(C)C[C@@H](O)[C@@H](O)[C@](C)(CO)[C@@H]5CC[C@@]43C)[C@@H]12 |  | inactive: 5.82% [at 20.9 µM] |
| Cc1cccc(C(=O)NC(=S)NNC(=O)c2ccc(Cl)cc2)c1 | inconclusive [inhibitor, single point] |  |
| O=C(Nc1ccc2c(c1)OCO2)c1cccc(S(=O)(=O)N2CCCC2)c1 | inconclusive [inhibitor, single point] |  |
| O=c1c2cc(N3CCOCC3)ccc2[nH]c(=S)n1Cc1ccccc1Cl | inconclusive [inhibitor, partial curve] |  |
| Cn1c(=NC(=O)CN2C(=O)C3CC=CCC3C2=O)sc2ccccc21 (stereo not given) | inconclusive [inhibitor, single point] |  |
| COc1ccc(N(CC(=O)Nc2ccccc2C(=O)NCc2ccco2)S(C)(=O)=O)cc1 | active: 11.2 µM |  |
| O=c1[nH]n2cc(-n3cc([N+](=O)[O-])cn3)cnc2c1Br | inconclusive [inhibitor, partial curve] |  |
| COc1ccc(OCC(=O)Nc2cccc(-c3nc4ccccc4[nH]3)c2)cc1 |  | inactive: -10.5% |
| COc1ccc(-n2cc(CN(C)Cc3n[nH]c(=O)[nH]3)c(-c3cccc(F)c3)n2)cc1 | inconclusive [inhibitor, partial curve] |  |
| COc1cccc(CN(C)CC(=O)Nc2ccccc2C(C)C)c1 | active: 20 µM |  |
| CCCc1ccc(Oc2c(-c3ccc(O)c(C)c3O)n[nH]c2C)cc1 |  | inactive: 0.849% |
| CC1CCc2sc(C(=O)N/N=C/c3ccc(O)cc3)cc2C1 (stereo not given) | inconclusive [inhibitor, single point] |  |
| CCOC(=O)c1[nH]c2ccc(OCC)cc2c1NC(=O)CN1CCCC(C)C1 (stereo not given) | inconclusive [inhibitor, partial curve] |  |
| CC(=O)Cn1ncc(N2CCOCC2)c(Br)c1=O |  | inactive: 3.21% |
| O=c1cc(-c2cccc(-c3ccc(C(F)(F)F)cc3)c2)c2cc3c(cc2o1)OCO3 | inconclusive [inhibitor, partial curve] |  |
| COc1cc(OC)c(OC)cc1CN1CCN(Cc2ccc(SC)cc2)CC1 | inconclusive [inhibitor, single point] |  |
| Cc1oc2c(c1C(=O)c1ccc(Cl)cc1)C(=O)C(=O)c1ccccc1-2 | inconclusive [inhibitor, single point] |  |
| Clc1cccc(-c2cc3nc4c(c(NCc5ccco5)n3n2)CCCC4)c1 | inconclusive [inhibitor, single point] |  |
| Cc1cc(C)n2c(nc3ccccc32)c1C(=O)NN | inconclusive [inhibitor, single point] |  |
| O=C(NCc1cccnc1)C(=O)NCC1OCCCN1S(=O)(=O)c1ccc(Cl)cc1 (stereo not given) | inconclusive [inhibitor, single point] |  |
| S=c1nc[nH]c2c1ncn2C1CCCC1 | inconclusive [inhibitor, single point] |  |

| SMILES | Potency | activity, negative = inhibition |
| --- | --- | --- |
| CN(C)S(=O)(=O)c1ccc(N2CCCC2)c(C(=O)Nc2nc3ccccc3s2)c1 | inconclusive [inhibitor, single point] |  |
| COC(=O)c1c(NC(=O)c2ccc(Br)o2)sc(C)c1C | inconclusive [inhibitor, single point] |  |
| S=C(NCc1ccccc1)NNc1ccccc1 | inconclusive [inhibitor, single point] |  |
| Cc1ccc(/C=c2\sc3nc(-c4ccco4)nn3c2=O)o1 | active: 3.55 µM |  |
| CCc1ccc(NC(=O)N(C2CCC(C)CC2)C2CCN(C(C)=O)CC2)cc1 (stereo not given) | inconclusive [inhibitor, single point] |  |
| O=C(CSc1nnnn1-c1ccccc1)c1ccco1 | inconclusive [inhibitor, single point] |  |
| C=C(C)CNC(=S)Nc1cccc(S(=O)(=O)NC2=NCCC2)c1 | inconclusive [inhibitor, partial curve] |  |
| CN1C(=O)c2ccc(NC(=O)c3ccc(N4CCCCC4)c([N+](=O)[O-])c3)cc2C1=O | inconclusive [inhibitor, full curve] |  |
| O=C(COC(=O)c1ccc(Cl)s1)c1cc2ccccc2o1 | inconclusive [inhibitor, single point] |  |
| O=C(C(Sc1ccccc1)c1ccccc1)N1CCN(c2ccccc2)CC1 (stereo not given) |  | inactive: -8.32% |
| Oc1ccc(-c2n[nH]c(=S)n2Cc2ccccc2)cc1 | active: 20 µM |  |
| Cc1cc(N2C(=O)C3CC=CC(C)C3C2=O)no1 (stereo not given) |  | inactive: -10.1% |
| Cc1ccc(SCC(=O)Nc2ccccc2C(=O)N2CCOCC2)cc1 | inconclusive [inhibitor, single point] |  |
| COCCCNC(=O)c1ccc2c(=O)n(C3CCCC3)c(=S)[nH]c2c1 | inconclusive [inhibitor, partial curve] |  |
| Cc1c(NC(=O)CCCOc2ccccc2)cccc1[N+](=O)[O-] |  | inactive: -17.8% |
| COc1ccc(Nc2nc(-c3cc4cccc(OC)c4oc3=O)cs2)cc1 | active: 22.4 µM |  |
| CN1C(=S)N(c2ccccc2)C(=O)/C1=C/c1cccs1 |  | inactive: 10.3% |
| CN[C@@H](c1ccncc1)[C@@H](NC)c1ccncc1 |  | inactive: 2.64% [at 13.5 µM] |
| CCOc1cc(-c2nc(-c3ccccc3)c(-c3cc([N+](=O)[O-])ccc3C)[nH]2)ccc1O | active: 6.31 µM |  |
| COc1ccccc1C(=O)NCCn1cc(SCC(=O)NCc2ccco2)c2ccccc21 | inconclusive [inhibitor, partial curve] |  |
| CCNc1nc(N)c(C(=C(C#N)C#N)c2ccccc2)s1 | inconclusive [inhibitor, partial curve] |  |
| O=C(Cn1cnc2c(nnn2Cc2ccc(F)cc2)c1=O)NCc1ccc(F)cc1 |  | inactive: 12.6% |
